# Laboratory results published in article PMC4336329 (PLoS ONE, 2015).
# In all, about 310,000 compounds went through this assay and about 14,000 (4.5%) showed an effect of 50% or more. The effect is printed as a negative number. The list shows a part of the results.
# Biological target: human ether-à-go-go-related gene (hERG) potassium channel (human, UniProt Q12809)
# Test: primary screen, population patch clamp on CHO cells stably expressing hERG
# 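Note: peak tail current of the secondary pulse compared with the same well before compound.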
# Sequence of human ether-à-go-go-related gene (hERG) potassium channel (Q12809 whole entry, looked up): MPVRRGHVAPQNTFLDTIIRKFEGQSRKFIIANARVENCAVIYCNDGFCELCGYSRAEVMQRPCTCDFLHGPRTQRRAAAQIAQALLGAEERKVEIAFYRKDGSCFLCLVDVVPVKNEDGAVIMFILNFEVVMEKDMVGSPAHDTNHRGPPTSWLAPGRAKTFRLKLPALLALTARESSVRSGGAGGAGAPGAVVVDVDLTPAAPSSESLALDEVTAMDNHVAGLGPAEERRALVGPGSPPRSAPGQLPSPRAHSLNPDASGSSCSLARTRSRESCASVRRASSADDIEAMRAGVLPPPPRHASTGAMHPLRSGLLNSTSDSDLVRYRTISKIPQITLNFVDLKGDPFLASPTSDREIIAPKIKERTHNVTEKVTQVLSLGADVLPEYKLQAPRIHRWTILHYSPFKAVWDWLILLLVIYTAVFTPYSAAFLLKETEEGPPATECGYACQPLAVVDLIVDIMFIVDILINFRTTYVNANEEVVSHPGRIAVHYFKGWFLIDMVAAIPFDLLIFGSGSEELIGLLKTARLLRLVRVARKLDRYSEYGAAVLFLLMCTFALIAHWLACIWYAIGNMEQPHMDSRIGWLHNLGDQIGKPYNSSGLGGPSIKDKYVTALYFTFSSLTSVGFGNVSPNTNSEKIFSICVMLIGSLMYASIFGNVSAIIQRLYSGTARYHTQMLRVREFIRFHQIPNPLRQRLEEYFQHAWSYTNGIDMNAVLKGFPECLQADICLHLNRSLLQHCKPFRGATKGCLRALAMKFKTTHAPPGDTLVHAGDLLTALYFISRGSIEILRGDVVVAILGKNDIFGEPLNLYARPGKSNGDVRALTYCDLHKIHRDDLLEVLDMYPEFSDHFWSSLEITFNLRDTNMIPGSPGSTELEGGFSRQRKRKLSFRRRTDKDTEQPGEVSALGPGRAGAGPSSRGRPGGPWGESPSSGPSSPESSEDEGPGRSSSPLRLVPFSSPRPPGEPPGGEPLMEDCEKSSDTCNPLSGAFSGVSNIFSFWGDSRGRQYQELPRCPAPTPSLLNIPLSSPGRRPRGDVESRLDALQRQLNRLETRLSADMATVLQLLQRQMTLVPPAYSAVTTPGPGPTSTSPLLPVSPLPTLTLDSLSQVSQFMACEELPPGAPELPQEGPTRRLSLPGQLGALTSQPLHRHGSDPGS
row,SMILES,"hERG current change (%, negative = inhibition) at 10uM [%]"
1,CCc1ccc(/C=N/Nc2ncnc3nc[nH]c23)cc1,-14.7
2,CCOC(=O)Cn1c(=O)oc2cc(S(=O)(=O)N3CCN(C(=O)OCC)CC3)ccc21,13
3,COc1cc(OC)c(NC(=S)NCc2ccccc2)cc1Cl,13.6
4,Cc1cnc(NC(=O)c2cc3c(s2)CCCC3)s1,6.32
5,CC(C)c1ccccc1OCCCCCNCCO,-14.6
6,Cc1sc2ncn(CC(=O)N3CCCC(C)C3)c(=O)c2c1S(=O)(=O)N1CCCCC1 (stereo not drawn),-14.2
7,O=C(CCC1CCCCC1)NCCN1C2=NC[C@H](Cc3ccc(O)cc3)N2C[C@H]1Cc1ccc(O)cc1,-4.37
8,Cc1sc2ncnc(SCC(=O)N3c4ccccc4Sc4ccc(Cl)cc43)c2c1C,5.91
9,CCOC(=O)Cn1nnc(-c2ccc(SC)cc2)n1,16.9
10,C=CCNC(=S)NCc1cccnc1,3.53
11,COc1ccc(CCNC(=O)CCC(=O)Nc2ccc3nc(N4CCN(C)CC4)cc(C)c3c2)cc1OC,22.2
12,CC1CCN(c2nc3c(c(=O)[nH]c(=O)n3C)n2CCCc2ccccc2)CC1,-15.4
13,COc1ccc(CN2CCS(=O)(=O)CC2)cc1OC,21.2
14,Cn1c(SCC(=O)NCc2ccc3c(c2)OCO3)nnc1C1COc2ccccc2O1 (stereo not drawn),-39
15,Cc1cc(C)n(CC(O)CN2C(=O)NC(C)(C)C2=O)n1 (stereo not drawn),6.26
16,COCCNC(=O)CSc1nccn1Cc1ccc2c(c1)OCO2,4.64
17,O=C(O)CNC(=O)c1cccc(C(F)(F)F)c1,1.95
18,CN1CCN(CCCOc2ccc(-c3ccccc3)cc2)CC1.Cl,-69.1
19,Cc1c(C)n(C)c2ccc(C(=O)NCCCN3CCCCC3C)cc12 (stereo not drawn),-19.6
20,N#CC1=C(N)N(c2ccccc2)C2=C(C(=O)CCC2)C1c1ccccc1 (stereo not drawn),-5.99
21,CCC1NC(=O)c2cc(S(N)(=O)=O)c(Cl)cc2N1 (stereo not drawn),3.8
22,O=[N+]([O-])c1cccc(/C=C/c2ccncc2)c1,-18.6
23,Cc1ccc(-c2cc(-c3ccccc3)nc(N/N=C/c3cccnc3)n2)cc1,17.3

row,SMILES,"hERG current change (%, negative = inhibition) at 10uM [%]"
1,CCc1ccccc1N(CC(=O)NCc1ccco1)C(=O)CCC(=O)Nc1nccs1,0.493
2,CCOC(=O)N/N=C/c1ccccc1F,-2.26
3,CC(C)C(=O)N=C1NC(=O)CS1,27.3
4,CCCN(CCC)CCCNC(=O)c1ccc2c(c1)N(CC)C(=O)c1ccccc1S2=O (stereo not drawn),-18.6
5,COc1ccc(C(C)=O)cc1COC(=O)C1CC(=O)N(Cc2ccccc2)C1 (stereo not drawn),8.24
6,COc1ccc(NC(=O)C2CCCN(C(=O)Nc3ccc(F)cc3)C2)cc1 (stereo not drawn),-9.27
7,Cc1ccc(Nc2nc(N)nc(CCl)n2)cc1,1.76
8,CCn1c(=O)n(CC)c2cc(N3CCCC3)c(NC(=O)c3c(F)cccc3F)cc21,-14
9,Nc1ccc(CCC(=O)N2CCCC2)cc1,18.7
10,COc1ccnc(Oc2ccccc2)c1C(=O)N/C=N/OCc1ccccc1,29.6
11,COc1ccc2sc(N(CCCN(C)C)C(=O)c3ccc(S(=O)(=O)N4CCc5ccccc5C4)cc3)nc2c1.Cl,-6.59
12,CC(=O)c1cccc(NC(=O)CN2C=NS(=O)(=O)c3ccc(C)cc32)c1,13.4
13,CCCOc1ccc(-c2nnn(CC(=O)N3CCC(C)CC3)n2)cc1,-2.44
14,CCC(=O)OC1(c2cccc(C)c2)CC(C)N(C)CC1C.Cl (stereo not drawn),-26.8
15,CSc1nsc(SCC(=O)Nc2ccc(F)cc2F)n1,-25.5
16,CCC1(CC)C(=O)C2=C3C1[C@H](C(=O)OC)C=C(C(=O)OC)C[C@H]3n1c(=O)n(C)c(=O)n1[C@H]2C (stereo partly drawn),23.5
17,CCOC(=O)c1ccc(NC(=O)N2CCN(C3CCCCC3)CC2)cc1,-29.7
18,COc1ccc(CCNC(=O)c2nnc(Cc3c(F)cccc3Cl)o2)cc1OC,13.9
19,Cc1cccc(N/C(N)=N/c2nc(C)cc(C)n2)c1,-28
20,CCOc1ccc(OCC(=O)OCC(=O)N2CCN(C(=O)c3ccco3)CC2)cc1,-21.9
21,S=c1[nH]nc(CSCc2ccc(Cl)cc2Cl)n1-c1ccccc1,6.18
22,Cc1ccc(NC2=C(Cl)C(=O)OC2OC(=O)c2ccco2)c(C)c1 (stereo not drawn),-16.5
23,COc1ccc(NC(=O)CSc2nnc(-c3ccccc3C)n2N)cc1,31.2

row,SMILES,"hERG current change (%, negative = inhibition) at 10uM [%]"
1,CC1CC(C)CN(C(=S)Nc2ccc(OC(F)F)cc2)C1 (stereo not drawn),-36.6
2,O=C(N/N=C/c1ccsc1)c1cc2ccccc2o1,18.3
3,CCN(CC)C(=O)CSc1nc(O)cc(=O)n1-c1ccccc1OC,0.0306
4,CCOC(=O)c1cnn(-c2ncnc3sc4c(c23)CCC4)c1N,-0.531
5,COc1ccc(C)cc1NC(=O)CN(C)S(=O)(=O)c1ccc2c(c1)CC(C)N2C(C)=O (stereo not drawn),-48.5
6,COc1ccccc1C(=O)COC(=O)Cn1nc(C)c([N+](=O)[O-])c1C,-0.669
7,COc1cccc(-c2nnc(SCCOc3ccc4c(C)cc(=O)oc4c3)o2)c1,2.18
8,Cc1ccc(/C=N/n2c(-c3cccc(Cl)c3)n[nH]c2=S)o1,4.31
9,CCN(C(=O)COC(=O)c1cc(-c2cccs2)nc2ccccc12)C1CCS(=O)(=O)C1 (stereo not drawn),-39
10,O=C(Nc1nc(COc2ccccc2)cs1)C1CCC1,-12.5
11,CCOc1cccc(-c2c(C(=O)N/N=C/c3ccc(Br)cc3)nnn2-c2nonc2N)c1,11.1
12,Cc1ccc(C)c(OCC(=O)Nc2cc(C(=O)O)cc(C(=O)O)c2)c1,10.8
13,COc1ccc(NC(=S)NCCCn2ccnc2)cc1,-0.11
14,O=C(Nc1ccc(F)cc1F)N1CCCCC1c1cccnc1 (stereo not drawn),-6.4
15,N#CC1=C2SCN(Cc3ccccc3)CN2C(=O)CC1c1ccc2c(c1)OCO2 (stereo not drawn),-10.6
16,CCN1C(=O)/C(=C2\SC(=S)N(NC(=O)c3cccnc3)C2=O)c2ccccc21,20
17,COc1cccc(NC(=O)CSc2nc3ncc(Br)cc3[nH]2)c1,7.25
18,Cc1c(Cl)cccc1NC(=S)NNS(=O)(=O)c1ccc([N+](=O)[O-])cc1,25.7
19,COC(=O)c1c(NC(=O)C(=O)NCCCN2CCOCC2)sc2c1CC(C)(C)OC2,15.2
20,FC(F)(F)c1ccccc1CN1CCCC(N2CCN(c3ccccc3)CC2)C1 (stereo not drawn),-0.712
21,Cc1noc(C)c1NC(=O)N1CCN(Cc2ccccc2)CC1,8.04
22,O=S(=O)(c1cccc(C(F)(F)F)c1)N(CCCN1CCOCC1)Cc1cccs1,-74.9
23,CC12CC(c3ccccc3O1)C(C(=O)NCc1ccccc1)C(=O)N2 (stereo not drawn),-4.7

row,SMILES,"hERG current change (%, negative = inhibition) at 10uM [%]"
1,CC1CCc2sc(NC(=O)c3ccc(N4C(=O)CCC4=O)cc3)c(C(N)=O)c2C1 (stereo not drawn),-1.74
2,COc1ccc(N(CC(=O)N/N=C/c2ccc3c(c2)OCO3)S(=O)(=O)c2ccccc2)cc1,3.83
3,CCc1cc(OCCCSc2nc(C)cc(=O)[nH]2)ccc1Cl,-4.68
4,Cc1cc(NC(=O)CCl)nn1C,29.8
5,COC(=O)c1cn(NC(=O)Cn2nc([N+](=O)[O-])c(Cl)c2C)c(=O)c2ccccc12,18.6
6,CC(=O)Nc1ccc(S(=O)(=O)Nc2nc(C)cc(-n3nc(C)cc3C)n2)cc1,-6.52
7,CCC(C)NS(=O)(=O)c1ccc(N)cc1 (stereo not drawn),28.3
8,CCOC(=O)C1CCCN(C(=O)CSc2ccccc2)C1 (stereo not drawn),2.84
9,O=C(Nc1cccc(C(=O)O)c1)Nc1ccccc1Cl,4.11
10,C=CCn1c(SCC(=O)NC2CC2)nnc1-c1cccc(OC)c1,2.24
11,CCCNC(=O)c1n[nH]c(=O)c2ccccc12,18
12,CC1CCN(C(=O)CN(Cc2ccc(F)cc2)S(C)(=O)=O)CC1,3.57
13,COc1ccc(S(=O)(=O)N2CCN(Cc3ccccc3)CC2)cc1OC,5.45
14,O=C1c2ccccc2CCC12N=NCC2c1ccc(Br)cc1 (stereo not drawn),-10.8
15,O=c1c(-c2nc3ccccc3s2)cccn1Cc1ccc(Cl)c(Cl)c1,-2.04
16,CCC1Oc2ccccc2N(CC(=O)NCCCN2CCN(c3ccc(OC)cc3)CC2)C1=O (stereo not drawn),-50.4
17,Cc1ccccc1C(=O)Nc1nc2c(C)csc2c(=O)s1,15.8
18,COc1ccc(NC(=O)CCNS(=O)(=O)c2cccc3nsnc23)cc1OC,-4.64
19,CCCCSc1nnc(CSc2ncccn2)n1C,-0.237
20,COc1cc(CC(=O)NCc2ccccn2)cc(OC)c1OC,2.42
21,Cc1cccc(NC(=S)/N=C(\N)Nc2nc(C)c3ccccc3n2)c1,-4.99
